The source of these data is paper PMC4336329 (PLoS ONE, 2015).

Molecules are shown by their SMILES. Among all 310,000 compounds or so, about 14,000 (4.5%) showed an effect of 50% or more. Effects have a minus sign here. The list shows a part of the results.
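Further: peak tail current of the secondary pulse compared with the same well before compound.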

The target of this test is human ether-à-go-go-related gene (hERG) potassium channel (human, UniProt Q12809). The experiment in a line: primary screen, population patch clamp on CHO cells stably expressing hERG.
Chain of human ether-à-go-go-related gene (hERG) potassium channel (Q12809 whole entry, looked up): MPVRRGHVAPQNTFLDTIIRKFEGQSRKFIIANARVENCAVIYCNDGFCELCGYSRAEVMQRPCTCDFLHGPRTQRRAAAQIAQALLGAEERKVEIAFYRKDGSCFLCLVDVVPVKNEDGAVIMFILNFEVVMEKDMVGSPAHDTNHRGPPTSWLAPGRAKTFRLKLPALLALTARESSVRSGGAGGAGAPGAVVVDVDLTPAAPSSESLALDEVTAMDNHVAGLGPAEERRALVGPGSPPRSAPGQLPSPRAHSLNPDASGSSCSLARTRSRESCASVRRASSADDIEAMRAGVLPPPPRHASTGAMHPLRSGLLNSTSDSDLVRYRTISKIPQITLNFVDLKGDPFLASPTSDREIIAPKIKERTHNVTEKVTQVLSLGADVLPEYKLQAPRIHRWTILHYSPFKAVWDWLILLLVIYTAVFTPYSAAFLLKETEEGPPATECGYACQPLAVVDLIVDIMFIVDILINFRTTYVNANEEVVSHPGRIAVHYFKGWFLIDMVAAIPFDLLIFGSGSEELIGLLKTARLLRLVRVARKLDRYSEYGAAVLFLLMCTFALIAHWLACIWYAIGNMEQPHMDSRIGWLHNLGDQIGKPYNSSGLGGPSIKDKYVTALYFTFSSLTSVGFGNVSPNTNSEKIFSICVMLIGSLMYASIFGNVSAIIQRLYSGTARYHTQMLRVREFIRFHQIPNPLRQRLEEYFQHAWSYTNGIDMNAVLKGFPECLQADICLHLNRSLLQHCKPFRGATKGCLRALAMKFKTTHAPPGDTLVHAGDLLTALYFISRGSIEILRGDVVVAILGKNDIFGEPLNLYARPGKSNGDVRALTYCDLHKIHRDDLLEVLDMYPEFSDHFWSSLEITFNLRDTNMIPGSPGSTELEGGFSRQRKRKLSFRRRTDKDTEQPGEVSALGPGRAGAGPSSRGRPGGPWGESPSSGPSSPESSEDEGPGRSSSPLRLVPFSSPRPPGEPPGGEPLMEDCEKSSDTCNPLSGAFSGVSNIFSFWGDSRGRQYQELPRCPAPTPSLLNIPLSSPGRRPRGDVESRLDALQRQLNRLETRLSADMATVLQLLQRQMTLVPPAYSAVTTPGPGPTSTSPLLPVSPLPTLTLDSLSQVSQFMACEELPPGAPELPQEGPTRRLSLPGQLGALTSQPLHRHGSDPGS
Turning to `CC(Oc1ccccc1C(N)=O)C(=O)Nc1ccc(S(=O)(=O)N2CCCC2)cc1` (stereo not shown), the “hERG current change (%, negative = inhibition) at 10uM” value is listed as -32.3%.
The figure for `O=C(COC(=O)CCc1nc2ccccc2c(=O)[nH]1)Nc1ccc(OC(F)(F)F)cc1` is -5.93%; for `O=S(=O)(Nc1cccc(S(=O)(=O)N2CCOCC2)c1)c1cccs1` it is 15.7%.
With `O=C(/C=C/c1cccnc1)c1cc(F)ccc1O`, the “hERG current change (%, negative = inhibition) at 10uM” value was -5.38%.
Under `Cc1onc(-c2c(Cl)cccc2Cl)c1C(=O)N1CCOCC1` stands 12%.
On to `CCN1CCC(=NNC(=O)CC23CC4CC(CC(C4)C2)C3)CC1`, for which the “hERG current change (%, negative = inhibition) at 10uM” value worked out at 12%.
The figure for `CCC(C)(C)NC(=O)Cn1c(-c2ccccc2)cc(C(C)=O)c1C` is -14.1%; for `COc1ccc(S(=O)(=O)N2CCCOC2CNC(=O)C(=O)NCCc2ccco2)cc1OC` (stereo not shown) it is 4.35%.
In the case of `COc1ccc(/C=N/n2cncn2)cc1Cn1nc(C)c([N+](=O)[O-])c1C`, the “hERG current change (%, negative = inhibition) at 10uM” value was -53.6%.
With `CCc1ccc2nc(N(CCCN(C)C)C(=O)c3ccc(C(=O)c4ccccc4)cc3)sc2c1.Cl`, the “hERG current change (%, negative = inhibition) at 10uM” value is -12.5%.
Under `COc1ccccc1CNC(=O)CN1C(=O)N(C)C2(CCCCC2)C1=O` stands 5.91%; under `CCN(CC)C(=O)CN(c1cccc(Br)c1)S(C)(=O)=O`, 7.03%.
Under `COC(=O)c1cc(CSc2nc3ccccc3[nH]2)oc1C` stands 18.3%.
Turning to `Cc1occc1C(=O)NCCc1ccc(Cl)cc1`, the “hERG current change (%, negative = inhibition) at 10uM” value is 4.24%.
With `COc1ccc(-n2c(C)cc(C(=O)CSc3nnc(-c4ccoc4C)n3C)c2C)cc1`, the “hERG current change (%, negative = inhibition) at 10uM” value is on record as -31.1%.
Regarding `O=C(CCCN1C(=O)c2ccccc2C1=O)Nc1c(C(=O)C2CC2)oc2ccccc12`, the “hERG current change (%, negative = inhibition) at 10uM” value worked out at 16.8%.
Under `CCOC(=O)CN(C(=O)CSc1nnc(C)n1-c1ccccc1)c1ccccc1` stands 6.79%; under `COc1ccc(-c2cn(Cc3ccc(C(=O)c4ccccc4)cc3)nn2)cc1`, -3.2%.
The figure for `CC(=O)Nc1ccc(S(=O)(=O)NNC(=O)C(=O)NNc2ccccn2)cc1` is 16.4%; for `CC1CCCN(CC(O)COc2ccc(Cl)cc2)C1.Cl` (stereo not shown) it is -69.2%; for `O=C(c1ccco1)N1CCN(C(=O)C2Cc3ccccc3CN2S(=O)(=O)c2ccc(F)cc2)CC1` (stereo not shown) it is -70.6%.
Under `COC(=O)c1ccc(C2/C(=C(/O)c3ccc(OC)cc3)C(=O)C(=O)N2CC2CCCO2)cc1` (stereo not shown) stands 13.4%; under `COc1cccc(COC(=O)c2c(C)nn(-c3ccccc3)c2Cl)c1OC`, 12.2%; under `CC(OC(=O)c1cccnc1Cl)C(=O)Nc1ccc2c(c1)OCCO2` (stereo not shown), -2.19%.
As to `COc1ccc(N2CCN(C(=O)C3CCCN(S(=O)(=O)c4c(C)noc4C)C3)CC2)cc1` (stereo not shown), the “hERG current change (%, negative = inhibition) at 10uM” value is -59.9%.
Under `CCn1cc(C(=O)NCCCOC(C)C)c(=O)c2cc(S(=O)(=O)N3CCCC3)ccc21` stands -19.9%; under `Cn1c(=O)[nH]c(=O)c2[nH]c(CN3CCN(Cc4ccccc4)CC3)nc21`, -7.24%.
Under `O=C(O/N=C(/c1ccccc1)c1ccncc1)c1cccc(F)c1` stands 12.3%; under `Cc1cc(C)c(C)c(S(=O)(=O)N2CCC(C(=O)NCCCN3CCCC3=O)CC2)c1C`, -70%.
Under `CCCCOC(=O)Nc1ccc(S(=O)(=O)Nc2onc(C)c2C)cc1` stands 23.1%; under `CCCCC(=O)Nc1ccc(C(=O)Nc2cc(C(F)(F)F)ccc2Cl)cc1`, 25.6%.
For the compound `N#Cc1c(N(CCO)CCO)nc(N)c2c(N)nc3c(c12)CC(=O)N3Cc1cccs1`, the “hERG current change (%, negative = inhibition) at 10uM” value is -38.2%.
Under `CCC1(C)Cc2ccccc2-c2nc(NCCO)n(-c3ccccc3)c(=O)c21` (stereo not shown) stands -28.9%; under `CN(CC(=O)Nc1ccc(Cl)c(C(F)(F)F)c1)C(=O)CNC(=O)C1CCCCC1`, -31.5%; under `COc1cc(C=C2C(=O)NC(=O)NC2=O)ccc1O`, 17.5%.
Turning to `CCCn1c(=O)c2[nH]c(-c3ccc(S(=O)(=O)O)cc3)nc2n(CCC)c1=O`, the “hERG current change (%, negative = inhibition) at 10uM” value is listed as 15.6%.
On to `O=C(CCN1CCOCC1)c1ccc(Cl)cc1`, for which the “hERG current change (%, negative = inhibition) at 10uM” value is 28.3%.
Under `CCOC(=O)c1ccc(-n2c(CN3CCN(CC)CC3)nc3ccc([N+](=O)[O-])cc3c2=O)cc1` stands -55%.
Under `COc1cccc(NC(=S)NNC(=O)Cn2nc(C(F)F)cc2C(F)F)c1` stands 17.4%; under `O=C(Nc1ccccc1C(=O)NC1CCCC1)NC1CCCC1`, 7.05%; under `Cc1ccc(-c2cc(C(=O)Nc3c(C)n(C)n(-c4ccccc4)c3=O)[nH]n2)c(O)c1C`, -6.25%.
On to `COc1ccc(OCCOc2cccc(C=C3C(=O)NC(=O)NC3=O)c2)cc1`, for which the “hERG current change (%, negative = inhibition) at 10uM” value turned out to be 17.3%.
On to `COCCNC(=O)Cc1c(C)c2c(cc(C)c3c(C)coc32)oc1=O`, for which the “hERG current change (%, negative = inhibition) at 10uM” value is -2.11%.
